Values joined by “and” are separate entries in the source; they are usually repeats but may differ in a detail not shown here. Identical values can stand only once. Among all 130,000 compounds or so, about 1,200 (0.92%) were called active. This list was built around the results that the source calls inconclusive (neither active nor inactive); the mix of calls is not that of the screen. Calls follow the shape of the dose curve; as a rule, active = well fitted cell-killing curve with a large enough effect; inconclusive = small, poorly fitted or top-dose-only effect; inactive = no such curve, though single readings can be large or run the other way. Potencies of inconclusive entries are doubtful fits and often do not repeat.
Assay: qHTS Screen for Compounds that Selectively Target Cancer Cells with p53 Mutations: Cytotoxicity of p53ts Cells at the Permissive Temperature; also: nearly all actives have a fitted effect of over 55% in size;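 as to activity change, negative = cytotoxicity: 0% = DMSO and -100% = full killing by reference compound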
Details: H1299-p53A138V at 32C, ATP luminescence viability, 24 h; series mostly up to 46.1 µM
Text: NIH Chemical Genomics Center [NCGC] NIH Molecular Libraries Screening Centers Network [MLSCN] MLSCN Grant: 1 X01 MH079844-01 Assay Submitter (PI): Dr. SUN, YI, University of Michigan NCGC Assay Overview: Synthetic Lethal Screen for Compounds to Kill Cancer Cells with p53 Mutation. Tumor suppressor gene p53 serves as a major cellular barrier against tumorigenesis. […] The goal of this screening is to identify small molecule probes that selectively kill cancer cells with mutations in p53. This screening was carried out using two lines of H1299 lung cancer cells. The H1299-p53 A138V line express a temperature sensitive p53 mutant (p53ts) in which the mutant p53 protein (A138V) is in the mutant confirmation when grown at 39C (the nonpermissive temperature) and in the wild type conformation when grown at 32C (the permissive temperature). A H1299-neo line (p53 null) grown at both 39C and 32C were used as counter-screens to filter out false positive associated with temperature shifting. The small molecular compounds that selectively target mutant p53-containing cancer cells were selected as candidate probes for further study. A cytotoxicity assay based on the measurement of ATP contents in cells was used in this screen. Concentration-responses of all the compounds in the library collection were determined in qHTS using the cell lines and temperature conditions as above.
NCGC Assay Protocol Summary: Both the H1299-p53A138V and H1299-neo cell lines were provided by Dr.Yi Sun, a PI at the University Michigan. The cells were maintained and cultured at 37C. The resuspended frozen cells were used to plate the cells in the 1536-well assay plates at a density of 600 cells per well in 5 ul medium. The assay plates with the cells were incubated at 37C for 16 to 30 hours before the experiments. The library compounds in DMSO solution were added to the cells in assay plates and incubated 24 hours at 39C (for mutant p53 conformation) or 32C (for normal p53 conformation as control). An ATP_lite assay kit (PerkinElmer) was used to determine the cell viability. Tomaxifen (100uM) was used as the positive control for cell killing. Data were normalized to the controls for basal activity (DMSO only) and 100% killing (100uM tamoxifen). AC50 values were determined from concentration-response data modeled with the standard Hill equation. P53 assay protocol: 1. Reagent; 5 uL H1299-p53A138V or H1299-neo cell cells/well 2. Time; overnight; 37C incubation 3. Compounds; 23 nL; 5.9 nM to 46 uM 4. Controls; 23 nL; Tamoxifen 100 uM 5. Time; 24 hr; 37C incubation 6. Reagent; 3 uL; ATP_Lite reagent 7. Time; 20 min; Room Temperature 8. Detection; Luminescence; Viewlux plate reader Keywords: p53, synthetic lethal, cancer, cell viability, cytotoxicity, H1299 cell line, luminescence, MLSMR, MLSCN, NIH Roadmap, qHTS, NCGC
Potency is read from the fitted curve at half-maximal effect; tags tell the direction and shape of the fitted curve.

| SMILES | Potency | activity change, negative = cytotoxicity |
| --- | --- | --- |
| O=C(O)c1cc(Cl)ccc1Cl | inconclusive: 0.0501 µM [cytotoxic, full curve, poor fit] |  |
| COc1cc2c(cc1OC)-c1c(O)c(OC)cc3c1[C@H](C2)N(C)CC3 | active: 31.6 µM |  |
| COC1C(O)C(C)O[C@@H](OC2CC[C@@]3(C)C4CC[C@]5(C)C(C6=CC(=O)OC6)CC[C@@]5(O)C4CC[C@@H]3C2)C1O (some centres undefined) | inconclusive: 0.0501 µM [cytotoxic, full curve] |  |
| CNCCc1ccc(O)c(O)c1 | inconclusive: 10 µM [cytotoxic, single point] |  |
| COc1ccc(OCCn2c(NC(=O)c3ccc(OC)cc3)nc3ccccc32)cc1 | inconclusive: 12.6 µM [cytotoxic, single point] |  |
| C=CCn1c(O)c(C(CC)=NCc2cc(OC)cc(OC)c2)c(=O)[nH]c1=O | inconclusive: 10 µM [cytotoxic, partial curve] |  |
| CCCC1(CCC)C(=O)NC(=NCc2ccccc2)NC1=O | inconclusive: 25.1 µM [cytotoxic, single point] |  |
| Cc1ccc2nc3c(cc2c1)CC1(C(=O)N(C)C(=O)N(C)C1=O)C1CCCCN31 (centres undefined) | inconclusive: 12.6 µM [cytotoxic, partial curve] |  |
| CCOc1ccccc1CN(CCc1ccc2c(c1)OCO2)Cc1ccc(CC)cc1 | inconclusive: 10 µM [cytotoxic, partial curve, poor fit] |  |
| CCC/C=C(\CCC)C(NP(=O)(c1ccccc1)c1ccccc1)c1ccccc1 (centres undefined) | inconclusive: 31.6 µM [cytotoxic, single point] |  |
| O=C(O)c1ccccc1-c1c2cc(Br)c(=O)cc-2oc2[c]([Hg])c(O)c(Br)cc12 | inconclusive: 12.6 µM [cytotoxic, single point] |  |
| Cc1ccccc1-n1c(/C=C/c2ccc(O)cc2)nc2ccccc2c1=O | inconclusive: 31.6 µM [cytotoxic, single point] |  |
| Cc1noc(C(=O)Nc2sc3c(c2C#N)CCC3)c1Cl | inconclusive: 12.6 µM [cytotoxic, partial curve] |  |
| COc1cc(OC)cc(C(=O)Nc2nc(-c3nnn(-c4ccc(C)cc4)c3C)ns2)c1 | inconclusive: 12.6 µM [cytotoxic, partial curve] |  |
| COc1ccccc1N(CC(=O)NC1CCCC1)C(=O)c1cnn(C(C)C)c1 | inconclusive: 10 µM [cytotoxic, partial curve, poor fit] |  |
| Cc1ccc2oc(-c3ccccc3)cc(=O)c2c1 | inconclusive: 12.6 µM [cytotoxic, partial curve] |  |
| NC(N)=Nc1ccc2[nH]c3c(c2c1)C[C@]1(O)[C@@H]2Cc4ccc(O)c5c4[C@]1(CCN2CC1CC1)[C@H]3O5 | active: 12.6 µM |  |
| O=C1NC(=O)N(CCC2=CCCCC2)C(=O)/C1=C/c1ccc(O)cc1 | inconclusive: 15.8 µM [cytotoxic, partial curve] |  |
| CCCCCOC(=O)c1ccccc1C(=O)OCCCCC | inconclusive: 0.0079 µM [cytotoxic, full curve, poor fit] |  |
| CC(C)=CCCC1(C)C=Cc2c(O)c3c(c(CC=C(C)C)c2O1)OC12C(CC4CC1C(C)(C)OC2(C/C=C(/C)C(=O)O)C4O)C3=O (centres undefined) | inconclusive: 31.6 µM [cytotoxic, single point] |  |

| SMILES | Potency | activity change, negative = cytotoxicity |
| --- | --- | --- |
| CC(C)NC[C@H](O)c1ccc(N)c(C#N)c1 | inactive |  |
| c1ccc2cc3c(cc2c1)-c1cccc2cccc-3c12 | inconclusive: 0.0063 µM [cytotoxic, full curve, poor fit] |  |
| Nc1c(C(=O)NCCc2ccccc2)c2nc3ccccc3nc2n1CCN1CCOCC1 | inconclusive: 31.6 µM [cytotoxic, single point] |  |
| CN[C@@H]1C[C@@H](c2ccc(Cl)c(Cl)c2)c2ccccc21 | active: 20 µM |  |
| NCCc1ccc(S(=O)(=O)F)cc1 | inconclusive: 20 µM [cytotoxic, single point] |  |
| CC1CN=C(Nc2cccc3ccccc23)S1 (centres undefined) | inconclusive: 31.6 µM [cytotoxic, single point] |  |
| C[N+]1(C)CCO[C@@](O)(c2ccc(-c3ccc([C@]4(O)C[N+](C)(C)CCO4)cc3)cc2)C1 | inactive |  |
| O=C(Cn1c(=O)n(Cc2ccccc2)c(=O)c2sc3ccccc3c21)NCc1ccccc1Cl | active: 12.6 µM |  |
| Cn1cc(C(=O)N2CCC3(CC2)OCCO3)c2c3ccccc3n(C)c2c1=O | inactive |  |
| CN(CC(=O)Nc1ccccc1-c1ccccc1)C1CCCCC1 | inactive |  |
| COC(=O)/C(C)=C\CC12OC(C)(C)C3CC(C=C4C(=O)c5c(OC)c6c(c(CC=C(C)C)c5OC431)OC(C)(CCC=C(C)C)C=C6)C2=O (centres undefined) | active: 3.98 µM |  |
| CC1=CC(=O)c2c(O)cccc2C1=O | active: 3.98 µM and active: 6.31 µM |  |
| CC1(C)CN=C(Nc2nc3ccccc3s2)S1 | inconclusive: 15.8 µM [cytotoxic, partial curve] |  |
| C[C@H](CC(C#N)(c1ccccc1)c1ccccc1)N1CCCCC1 |  | inactive: -1.66% [at 9.22 µM] |
| CC(C)C(=O)c1cn(Cc2ccccc2C#N)c2ccccc12 | inactive |  |
| COc1ccc(/C=C/C(=O)Nc2ccc(C)cc2)cc1 | inconclusive: 12.6 µM [cytotoxic, single point] |  |
| COP(=S)(OC)Oc1ccc([N+](=O)[O-])cc1 | inconclusive: 31.6 µM [cytotoxic, single point] |  |
| CC1CC[C@@]2(OC1)OC1C(O)C3C4CC[C@H]5CC(O[C@@H]6O[C@@H](CO)[C@H](OC7OC(CO)C(O)C(OC8OCC(O)C(O)[C@H]8O)[C@@H]7O[C@@H]7OC(CO)[C@H](O)[C@@H](O[C@@H]8OC(CO)C(O)C(O)C8O)C7O)C(O)C6O)C(O)C[C@]5(C)C4CC[C@]3(C)C1C2C (some centres undefined) | active: 6.31 µM |  |
| Cc1nc2ccccc2c(=O)n1-n1cnnc1 | inactive |  |
| CC[C@@]1(O)C(=O)OCc2c1cc1n(c2=O)Cc2cc3ccccc3nc2-1 | inconclusive: 0.0251 µM [cytotoxic, full curve, poor fit] |  |

| SMILES | Potency | activity change, negative = cytotoxicity |
| --- | --- | --- |
| C[C@@]12CC[C@H]3[C@@H](CC[C@]4(O)C[C@H](O)CC[C@@]34C=O)[C@]1(O)CC[C@@H]2C1=CC(=O)OC1 | inconclusive: 0.631 µM [cytotoxic, full curve, poor fit] |  |
| COc1ccc(CCN2CCC(CNC(=O)c3cnn(-c4ccc(C)cc4)c3C3CCN(C(=O)OC(C)(C)C)CC3)CC2)cc1 | inconclusive: 31.6 µM [cytotoxic, single point] |  |
| COc1ccc2[nH]cc(CCN)c2c1 | inactive |  |
| Nc1c(C(=O)Nc2cccc(Br)c2)sc2nc3c(cc12)N1CCC3CC1 | inconclusive: 25.1 µM [cytotoxic, single point] |  |
| C=CC(=C)C | inconclusive: 0.005 µM [cytotoxic, full curve, poor fit] |  |
| CN(CC1COc2ccccc2O1)c1nc(-c2cccnc2)nc2ccccc12 (centres undefined) | inconclusive: 20 µM [cytotoxic, single point] |  |
| COc1ccc(P2(=O)Nc3ccccc3N2)cc1 | inconclusive: 10 µM [cytotoxic, partial curve] |  |
| CCCC/C(C)=C/[C@@H](NP(=O)(c1ccccc1)c1ccccc1)c1ccccc1 | inconclusive: 31.6 µM [cytotoxic, single point] |  |
| CC1(C)CCC(C)(C)c2c1ccc(O)c2Cc1c(O)ccc2c1C(C)(C)CCC2(C)C | inconclusive: 5.01 µM [cytotoxic, single point] |  |
| COC(=O)[C@]1(C)CC[C@@]2(C)CC[C@@]3(C)C4=CCc5c(cc(O)c(O)c5C)[C@]4(C)CC[C@@]3(C)C2C1 (some centres undefined) | inconclusive: 31.6 µM [cytotoxic, single point] |  |
| COC1=C(C)C(=O)c2c(c(COC(N)=O)c3n2C[C@@H]2[C@@H]3N2C)C1=O (some centres undefined) | inconclusive: 3.16 µM [cytotoxic, single point] |  |
| NS(=O)(=O)c1ccc(N=Cc2c(O)n(C3CCCCC3)c(=O)n(C3CCCCC3)c2=O)cc1 | inconclusive: 31.6 µM [cytotoxic, single point] |  |
| O=C(Cn1c(=O)n(CC2CCC(C(=O)NCCc3ccccc3)CC2)c(=O)c2ccccc21)Nc1cccc(F)c1 (centres undefined) | inconclusive: 10 µM [cytotoxic, partial curve] |  |
| Clc1ccc(C(c2ccc(Cl)cc2)n2cc[n+](C[C@@H](OCc3ccc(Cl)cc3Cl)c3ccc(Cl)cc3Cl)c2)cc1 | inconclusive: 31.6 µM [cytotoxic, single point] |  |
| C[C@@H]1O[C@H](O[C@@H]2C=C3CC[C@H]4[C@@H](CC[C@]5(C)[C@@H](c6ccc(=O)oc6)CC[C@]45O)[C@@]3(C)CC2)[C@@H](O)[C@H](O)[C@@H]1O | inconclusive: 0.02 µM [cytotoxic, full curve] |  |
| C[C@]12[C@H](O)CC3C(CC[C@@H]4C[C@@H](O)CC[C@]34C)[C@@]1(O)CC[C@@H]2C1=CC(=O)OC1 (some centres undefined) | inconclusive: 2 µM [cytotoxic, full curve] |  |
| Cc1ccc(Cl)cc1Nc1nn2c(=O)c3ccc(C(=O)NCc4cccs4)cc3nc2s1 | active: 12.6 µM |  |
| Cc1ccc2oc(=O)c(-c3nc4ccc(C)cc4[nH]3)cc2c1 | inconclusive: 10 µM [cytotoxic, partial curve] |  |
| CC(C)[C@@]1(NC(=O)[C@@H]2C[C@H]3c4cccc5[nH]cc(c45)C[C@@H]3N(C)C2)O[C@@]2(O)[C@H]3CCCN3C(=O)[C@H](Cc3ccccc3)N2C1=O | inconclusive: 31.6 µM [cytotoxic, single point] and inconclusive: 25.1 µM [cytotoxic, single point] |  |
